# From the supplement of paper PMC8728848
# Some of the results follow.
# Experiments:
# Experiment in all cases: glycan array binding signal (z-score within array); higher = stronger binding
# Details in all cases: glycan notation: IUPAC condensed, linker removed
# [1] = target: Gal(b1-4)GlcNAc(b1-3)Gal(b1-4)GlcNAc(b1-3)Gal(b1-4)GlcNAc(b1-3)Gal(b1-4)GlcNAc(b1-3)Gal(b1-4)GlcNAc(b1-2)Man(a1-3)[Gal(b1-4)GlcNAc(b1-3)Gal(b1-4)GlcNAc(b1-3)Gal(b1-4)GlcNAc(b1-3)Gal(b1-4)GlcNAc(b1-3)Gal(b1-4)GlcNAc(b1-2)Man(a1-6)]Man(b1-4)GlcNAc(b1-4)GlcNAc
# How it was run: (§1)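 From the Consortium for Functional Glycomics database, 3228 arrays were curated, keeping only those whose protein sequence was available. Binding is given as a within-array Z-score averaged across arrays sharing a protein sequence and across linkers. Negative Z-scores can be read as non-binding.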
# [2] = target: Gal(b1-4)GlcNAc(b1-3)Gal(b1-4)GlcNAc(b1-3)Gal(b1-4)GlcNAc(b1-3)Gal(b1-4)GlcNAc(b1-3)Gal(b1-4)GlcNAc(b1-2)Man(a1-3)[Gal(b1-4)GlcNAc(b1-3)Gal(b1-4)GlcNAc(b1-3)Gal(b1-4)GlcNAc(b1-3)Gal(b1-4)GlcNAc(b1-3)Gal(b1-4)GlcNAc(b1-2)Man(a1-6)]Man(b1-4)GlcNAc(b1-4)[Fuc(a1-6)]GlcNAc
# How it was run: as §1
# [3] = target: Gal(b1-4)GlcNAc(b1-3)Gal(b1-4)GlcNAc(b1-3)Gal(b1-4)GlcNAc(b1-3)Gal(b1-4)GlcNAc(b1-3)Gal(b1-4)GlcNAc(b1-2)[Gal(b1-4)GlcNAc(b1-3)Gal(b1-4)GlcNAc(b1-3)Gal(b1-4)GlcNAc(b1-3)Gal(b1-4)GlcNAc(b1-3)Gal(b1-4)GlcNAc(b1-6)]Man(a1-6)[Gal(b1-4)GlcNAc(b1-3)Gal(b1-4)GlcNAc(b1-3)Gal(b1-4)GlcNAc(b1-3)Gal(b1-4)GlcNAc(b1-3)Gal(b1-4)GlcNAc(b1-2)Man(a1-3)]Man(b1-4)GlcNAc(b1-4)[Fuc(a1-6)]GlcNAc
# How it was run: as §1
# [4] = target: Gal(b1-4)GlcNAc(b1-3)Gal(b1-4)GlcNAc(b1-3)Gal(b1-4)GlcNAc(b1-3)Gal(b1-4)GlcNAc(b1-3)Gal(b1-4)GlcNAc(b1-3)Gal(b1-4)GlcNAc(b1-2)Man(a1-3)[Gal(b1-4)GlcNAc(b1-3)Gal(b1-4)GlcNAc(b1-3)Gal(b1-4)GlcNAc(b1-3)Gal(b1-4)GlcNAc(b1-3)Gal(b1-4)GlcNAc(b1-3)Gal(b1-4)GlcNAc(b1-2)Man(a1-6)]Man(b1-4)GlcNAc(b1-4)GlcNAc
# How it was run: as §1
# [5] = target: Gal(b1-4)GlcNAc(b1-3)Gal(b1-4)GlcNAc(b1-3)GalNAc
# How it was run: as §1
# [6] = target: Gal(b1-4)GlcNAc(b1-3)Gal(b1-4)GlcNAc(b1-3)[Gal(b1-4)GlcNAc(b1-3)Gal(b1-4)GlcNAc(b1-6)]GalNAc
# How it was run: as §1
# [7] = target: Gal(b1-4)GlcNAc(b1-3)Gal(b1-4)GlcNAc(b1-6)[Gal(b1-3)]GalNAc
# How it was run: as §1
# [8] = target: Gal(b1-4)GlcNAc(b1-3)Gal(b1-4)[Fuc(a1-3)]GlcNAc(b1-3)Gal(b1-4)[Fuc(a1-3)]GlcNAc
# How it was run: as §1
# [9] = target: Gal(b1-4)GlcNAc(b1-3)GalNAc
# How it was run: as §1
# [10] = target: Gal(b1-4)GlcNAc(b1-3)[Fuc(a1-3)GlcNAc(b1-6)]Gal(b1-4)Glc
# How it was run: as §1
# [11] = target: Gal(b1-4)GlcNAc(b1-3)[Gal(b1-4)GlcNAc(b1-6)]Gal(b1-4)GlcNAc
# How it was run: as §1
# [12] = target: Gal(b1-4)GlcNAc(b1-3)[Gal(b1-4)GlcNAc(b1-6)]GalNAc
# How it was run: as §1
# [13] = target: Gal(b1-4)GlcNAc(b1-3)[GlcNAc(b1-6)]Gal(b1-4)GlcNAc
# How it was run: as §1
# [14] = target: Gal(b1-4)GlcNAc(b1-6)Gal(b1-4)GlcNAc
# How it was run: as §1
# [15] = target: Gal(b1-4)GlcNAc(b1-6)GalNAc
# How it was run: as §1
# [16] = target: Gal(b1-4)GlcNAc(b1-6)[Gal(b1-3)]GalNAc
# How it was run: as §1
# [17] = target: Gal(b1-4)GlcNAc(b1-6)[Gal(b1-3)]GlcNAc
# How it was run: as §1
# [18] = target: Gal(b1-4)GlcNAc(b1-6)[Gal(b1-4)GlcNAc(b1-3)]GalNAc
# How it was run: as §1
# [19] = target: Gal(b1-4)GlcNAc6P
# How it was run: as §1
# [20] = target: Gal(b1-6)Gal
# How it was run: as §1
# [21] = target: Gal3S(b1-3)GalNAc
# How it was run: as §1
# [22] = target: Gal3S(b1-3)GlcNAc
# How it was run: as §1
# [23] = target: Gal3S(b1-3)[Fuc(a1-4)]GlcNAc
# How it was run: as §1
# [24] = target: Gal3S(b1-4)Glc
# How it was run: as §1
# [25] = target: Gal3S(b1-4)Glc6S
# How it was run: as §1
# [26] = target: Gal3S(b1-4)GlcNAc
# How it was run: as §1
# [27] = target: Gal3S(b1-4)GlcNAc6S
# How it was run: as §1
# [28] = target: Gal3S(b1-4)[Fuc(a1-3)]Glc6S
# How it was run: as §1
# [29] = target: Gal3S(b1-4)[Fuc(a1-3)]GlcNAc
# How it was run: as §1
# [30] = target: Gal3S(b1-4)[Fuc(a1-3)]GlcNAc6S
# How it was run: as §1
# [31] = target: Gal3S4S(b1-4)GlcNAc
# How it was run: as §1
# [32] = target: Gal3S6S(b1-4)GlcNAc
# How it was run: as §1
# [33] = target: Gal3S6S(b1-4)GlcNAc6S
# How it was run: as §1
# [34] = target: Gal4S(b1-4)GlcNAc
# How it was run: as §1
# [35] = target: Gal4S6S(b1-4)GlcNAc
# How it was run: as §1
# [36] = target: Gal6P(b1-4)GlcNAc
# How it was run: as §1
# [37] = target: Gal6S(b1-3)GlcNAc
# How it was run: as §1
binder,measurement,setting,value
Epa12 (Candida glabrata) (protein) MGSSHHHHHHSSGLVPRGSHMLEPDNSLQIFDSFLSNPSKYPLGCSPKITNPKKGLSMELYSYPYRKKGSHPCWDPAYLDPNFPRVGYKKNKLIARVDGVSGDINFNFHPKRQCTPIADYLPPNFNYNEPITTTNFTMLLYGYFKPKVTGLHTFDISADDLLFMNFGAGNAFDCCRRDSTADTFGNYVAWAIWGRRIVRNKLTVRLDKGIYYPLRLFFNNRDYYGQMRLTFKTEHGSERITDFSDYFFSVDDTSEGCPGLITYESECADVKSSTVLETDYITIQAEKE,glycan array binding signal (z-score),[1],-0.444
same,glycan array binding signal (z-score),[2],-0.323
same,glycan array binding signal (z-score),[3],-0.084
same,glycan array binding signal (z-score),[4],-0.145
same,glycan array binding signal (z-score),[5],0.034
same,glycan array binding signal (z-score),[6],-0.105
same,glycan array binding signal (z-score),[7],-0.065
same,glycan array binding signal (z-score),[8],0.066
same,glycan array binding signal (z-score),[9],-0.142
same,glycan array binding signal (z-score),[10],-0.079
same,glycan array binding signal (z-score),[11],-0.194
same,glycan array binding signal (z-score),[12],-0.184
same,glycan array binding signal (z-score),[13],-0.258
same,glycan array binding signal (z-score),[14],1.5
same,glycan array binding signal (z-score),[15],0.398
same,glycan array binding signal (z-score),[16],0.153
same,glycan array binding signal (z-score),[17],-0.242
same,glycan array binding signal (z-score),[18],0.111
same,glycan array binding signal (z-score),[19],-0.018
same,glycan array binding signal (z-score),[20],0.714
same,glycan array binding signal (z-score),[21],-0.335
same,glycan array binding signal (z-score),[22],-0.363
same,glycan array binding signal (z-score),[23],-0.337
same,glycan array binding signal (z-score),[24],-0.273
same,glycan array binding signal (z-score),[25],-0.255
same,glycan array binding signal (z-score),[26],-0.3
same,glycan array binding signal (z-score),[27],0.607
same,glycan array binding signal (z-score),[28],-0.118
same,glycan array binding signal (z-score),[29],-0.321
same,glycan array binding signal (z-score),[30],0.164
same,glycan array binding signal (z-score),[31],-0.166
same,glycan array binding signal (z-score),[32],-0.166
same,glycan array binding signal (z-score),[33],0.642
same,glycan array binding signal (z-score),[34],-0.296
same,glycan array binding signal (z-score),[35],-0.26
same,glycan array binding signal (z-score),[36],-0.171
same,glycan array binding signal (z-score),[37],3.06
